# Measurements published in PubChem BioAssay AID488969 (Vanderbilt High Throughput Screening Facility, 2010).
# In all, about 110,000 compounds were measured (“z-score”: median about -0.1, highest 2% from about 2 on). The list shows a part of the results. Active and inactive are the calls of the source.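 Rule for the calls: active = z-score in the third read window above 3 or below -3; inactive = the rest.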
# Target: Metabotropic glutamate receptor 8 (Rattus norvegicus) (UniProt P70579)
# Assay: rat mGluR8 modulators via GIRK flux, primary screen, cell-based, thallium flux, HTS (AID 488969)
# Settings: HEK293 rat mGluR8, GIRK (G protein-gated inwardly rectifying potassium channel) thallium flux, FluoZin2; at 10 µM; stronger effect = higher value; submaximal glutamate (EC20) added with thallium
# UniProt P70579, sequence (P70579 whole entry, looked up): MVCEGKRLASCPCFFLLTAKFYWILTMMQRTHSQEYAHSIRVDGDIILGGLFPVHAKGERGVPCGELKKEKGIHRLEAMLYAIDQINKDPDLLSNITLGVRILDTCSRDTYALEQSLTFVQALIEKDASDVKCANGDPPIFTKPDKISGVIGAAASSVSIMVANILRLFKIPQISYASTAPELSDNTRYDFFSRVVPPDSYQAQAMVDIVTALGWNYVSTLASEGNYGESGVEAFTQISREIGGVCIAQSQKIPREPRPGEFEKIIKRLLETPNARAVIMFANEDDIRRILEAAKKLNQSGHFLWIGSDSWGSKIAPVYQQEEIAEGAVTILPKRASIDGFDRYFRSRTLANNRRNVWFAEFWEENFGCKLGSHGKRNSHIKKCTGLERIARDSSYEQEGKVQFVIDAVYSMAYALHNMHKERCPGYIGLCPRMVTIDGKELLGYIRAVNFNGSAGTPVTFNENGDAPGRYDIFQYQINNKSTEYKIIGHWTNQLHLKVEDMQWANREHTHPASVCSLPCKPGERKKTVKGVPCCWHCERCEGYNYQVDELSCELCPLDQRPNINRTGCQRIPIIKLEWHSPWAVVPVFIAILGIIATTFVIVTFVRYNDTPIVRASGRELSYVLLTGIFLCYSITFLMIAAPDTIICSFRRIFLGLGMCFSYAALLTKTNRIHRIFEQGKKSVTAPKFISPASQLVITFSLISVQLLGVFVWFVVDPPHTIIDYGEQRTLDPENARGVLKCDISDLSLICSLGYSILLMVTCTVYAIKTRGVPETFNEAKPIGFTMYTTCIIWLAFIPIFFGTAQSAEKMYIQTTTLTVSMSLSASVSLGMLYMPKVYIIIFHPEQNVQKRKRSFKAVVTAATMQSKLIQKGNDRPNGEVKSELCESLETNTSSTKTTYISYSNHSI
row,SMILES,z-score
1,Cc1c(NC(=O)c2ccc(F)cc2)c(=O)n(-c2ccccc2)n1C,-0.16
2,COc1ccccc1C(=O)Oc1ccc(N2C(=O)CCC2=O)cc1,0.0926
3,Cc1c([N+](=O)[O-])c([N+](=O)[O-])nn1CC(=O)N1CCCCC1,-0.199
4,Cc1ccc(C2N3CC4([N+](=O)[O-])CN2CC([N+](=O)[O-])(C3)C4(C)C)cc1 (configuration not stated),0.0352
5,CC(NCc1ccco1)C(=O)N1CCc2ccccc2C1 (configuration not stated),0.108
6,CCN1CCN(S(=O)(=O)c2cc(OC)c(Cl)cc2OC)CC1,-0.0298
7,O=C(Cn1nc(C(F)(F)F)c2c1CCC2)NCc1ccc(Cl)cc1,-0.26
8,COc1ccc(C2C=C(C34CC5CC(CC(C5)C3)C4)NC(=S)N2)cc1OC (configuration not stated),-0.251
9,COC(=O)CC1(c2ccccc2)C(=O)c2ccccc2C1=O,-0.606
10,Cc1ccc(Sc2nnc(Cc3ccccc3)c3ccccc23)cc1,-0.421
11,Cc1nc(NCCc2ccc(S(N)(=O)=O)cc2)c2c(C)c(C)sc2n1,active: 6.05
12,Cn1c(=O)oc2cc(S(=O)(=O)N3CCCC(C(=O)Nc4ccc5c(c4)OCCO5)C3)ccc21 (configuration not stated),-0.546
13,CN(Cc1cnn(C)c1)C(=O)c1sc2cccc(Cl)c2c1Cl,-1.73
14,Cc1cc(-c2cccc([N+](=O)[O-])c2)nc2ccccc12,-0.424
15,O=C(COC(=O)c1n[nH]c(=O)c2ccccc12)c1ccc(Cl)cc1,0.374
16,CC(C)C[C@H](NC(=O)Nc1ccccc1F)C(=O)O,-0.103
17,CCOC(=O)Cc1csc(NC(=O)COc2ccccc2OC)n1,0.143
18,COc1ccc(OC)c(CNCCNC(=O)c2ccco2)c1,-0.131
19,Fc1cccc(NC(=S)NCCN2CCOCC2)c1,-0.326
20,CC(C)(C)n1nnnc1C(c1ccncc1)N1CCN(C2CCCCC2)CC1 (configuration not stated),-0.312
21,COc1ccc(C(=O)NC2CCCCCC2)cc1S(=O)(=O)Nc1ccc(Br)cc1,0.0178
22,C/C(=N/Nc1nc(C)cc(-c2ccccc2)n1)c1ccco1,0.158
23,O=C(CC1COc2ccccc2O1)NC1CCCCC1 (configuration not stated),0.48
24,COc1ccc(-c2nc3c(c(=O)[nH]c(=O)n3Cc3ccccc3)n2C)cc1,0.265

row,SMILES,z-score
1,COc1ccc(S(=O)(=O)NCCSCc2cccc(C)c2)cc1Br,0.341
2,CC(C)Cc1ccc(/C(=N/O)C(=O)O)s1,0.0106
3,Nc1nc(SCC(=O)NC2CCCCC2)[nH]c(=O)c1-c1ccccc1,0.0888
4,Cc1ccc(C(=O)N/C(=C\c2cccs2)c2nc3ccccc3[nH]2)cc1,-0.263
5,COC(=O)CN(c1ccc(C)c(Cl)c1)S(C)(=O)=O,-0.114
6,CCCc1nnc(SCC(=O)N2C(C)CCCC2C)n1CC1CCCO1 (configuration not stated),-0.37
7,COC(=O)C1CCCN1S(=O)(=O)c1ccc2ccccc2c1 (configuration not stated),2.41
8,COc1cc2cc(CN(CCN3CCCC3)C(=O)Nc3ccccc3Cl)c(=O)[nH]c2cc1OC,-0.447
9,O=C(CCCCCN1C(=O)CCC1=O)NCc1ccccc1,-0.0832
10,COC(=O)c1sc2nc(-c3ccccc3)c3c(c2c1N)CCCC3,-0.0945
11,Cc1ccc(S(=O)(=O)N(C)CCCC(=O)N2CCN(C=O)CC2)cc1,0.113
12,Cc1ccc(S(=O)(=O)N(C)c2ccc(OCC(=O)Nc3nc(-c4ccccc4)cs3)cc2)cc1,-0.277
13,CCn1c(=O)cc(SCC(=O)N(C)Cc2ccccc2)c2ccccc21,-0.0404
14,CCSc1ccccc1C(=O)Nc1cc(C)on1,0.549
15,C=CCc1cccc(CNc2c(C)n(C)n(-c3ccccc3)c2=O)c1O,0.0234
16,CCSc1nnc(-c2ccc(Cl)cc2Cl)o1,-0.571
17,CCOC(=O)N1CCN(C(=O)c2ccc(N(Cc3ccccc3)S(C)(=O)=O)cc2)CC1,-0.371
18,CCOC(=O)c1oc2ccccc2c1NC(=O)Cc1cccs1,-0.898
19,CC(=O)N1CCN(S(=O)(=O)c2cccc(C(=O)Nc3nc4ccccc4[nH]3)c2)CC1,0.114
20,O=C(O)c1cccc(NC(=S)NC(=O)C(c2ccccc2)c2ccccc2)c1,-0.745
21,CC(C)c1nnc(-c2ccc(Cl)cc2)c(N(C)C)n1,-0.269
22,O=C1/C(=C/c2cccnc2)SC(=S)N1C1CCS(=O)(=O)C1 (configuration not stated),-0.0337
23,N#C/C(=C\N1CCN(Cc2ccc3c(c2)OCO3)CC1)c1nc2ccccc2s1,-0.00246
24,COc1ccccc1N1CCN(C(=O)CSc2nc(N)cc(=O)[nH]2)CC1,-0.298

row,SMILES,z-score
1,c1ccc(Cn2nnnc2CN2CCOCC2)cc1,-0.23
2,C/C(=N\NC(=S)NC1CCCCC1)c1ccc(C#N)cc1,1.56
3,CCc1ccccc1N(CC(=O)N1CCN(c2ccc(F)cc2)CC1)S(C)(=O)=O,-0.106
4,Cc1cccc(-c2nnc(SCc3cc(=O)[nH]c4ccccc34)n2C)c1,0.106
5,CCOC(=O)C(O)(CC(=O)c1ccc(OC)cc1)C(F)(F)F (configuration not stated),-1.17
6,CN(CC(=O)Nc1nc2ccc(F)cc2s1)S(=O)(=O)c1ccc(Cl)cc1,0.625
7,Oc1[nH]c2ccccc2c1C=NCC1CCCO1 (configuration not stated),-0.00202
8,CCCN=C1N/C(=C\c2ccco2)C(=O)N1c1ccccc1,0.0674
9,Cc1nc2ccccn2c1C(=O)/C=C/c1ccc(F)cc1,-0.0172
10,CCC(C)N1C(=O)CCC1C(=O)N1CCN(c2ccccc2F)CC1 (configuration not stated),0.402
11,S=c1nc2ccccc2c2nc(-c3ccccc3)[nH]n12,2.81
12,Cc1cc(NCCN2CCOCC2)n2nc(C)c(-c3ccccc3)c2n1,0.00731
13,Cc1oc2c(CN3CCOCC3)c(O)ccc2c(=O)c1-c1ccccc1,1.15
14,COc1ccccc1Nc1ncnc2nc[nH]c12,-0.317
15,O=C1CN=C(Nc2ccccc2)N1Cc1cccs1,-0.659
16,CCN(CC)C(=O)CSC1=C(C#N)C(c2cccs2)C=C(C)N1 (configuration not stated),0.282
17,C/C(Cc1ccccc1)=N\NC(=O)c1cccnc1,-0.311
18,CC(C)Sc1cc(N2CCCC2)nc(-c2ccccc2)n1,-0.246
19,COC(=O)CNC(c1ccccc1)c1cc(Br)ccc1NC(=O)CCN1CCOCC1 (configuration not stated),-0.271
20,FC(F)(F)c1cc(C(F)(F)F)c2ccc(Oc3ccccc3)nc2n1,-0.296
21,CCOC(=O)C1CCN(C(=O)Cn2cc(C(=O)C3CC3)c3ccccc32)CC1,-0.86
22,CCC(C)[C@H](NC(=O)NCc1cccc(OC)c1)C(=O)OC (some centres not stated),0.846
23,CC1Cc2ccccc2N1C(=O)CN1C(=O)C(=O)N(Cc2ccccc2)C1=O (configuration not stated),-0.177
24,CC(C)(C)c1ccc(Oc2cccc(C3CC(=O)C(C4NCCc5ccccc54)C(=O)C3n3cncn3)c2)cc1 (configuration not stated),0.0317
